# According to a collection of fitness landscapes (doi:10.1016/j.celrep.2020.107928):
# Over roughly 81,000 sequences, “one-hybrid fitness for binding NBS DNA” has its median near -0.1; the highest 2% begin near 0.36. The list shows a part of the results.
# B1: Caulobacter ParB omega fusion; a variant is named by its letters at X, in order, B8GW30 (parent)
# chain: MESVVVGEPGMSEGRRGLGRGLSALLGEVDAAPAQAPGEQLGGSREAPIEILQRNPDQPRRTFREEDLEDLSNSIREKGVLQPILVRPSPDTAGEYQIVAGERAWRAAQRAGLKTVPIMVRELDDLAVLEIGIIENVQRADLNVLEEALSYKVLMEKFERTQENIAQTIGKSXSHVANXMRLLXLPDEVQSYLVSGELTAXHARAIAAAADPVALAKQIIEGGLSVRETEALARKAPNLSAGKSKGGRPPRVKDTDTQALESDLSSVLGLDVSIDHRGSTGTLTITYATLEQLDDLCNRLTRGI
# Variants of: B1
# Experiment: one-hybrid fitness for binding NBS DNA (the Noc-binding site; scaled: cognate 1, non-cognate 0); higher = stronger binding
# Details: with NBS DNA site
# How it was run: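 Values were rescaled so that cognate is 1 and non-cognate is 0. Each is a fitness, the log change in a variant's read ratio to wild type from Illumina reads of plasmids before and after selection, with three replicate libraries pooled and variants under 10 reads dropped. Selection of the Caulobacter ParB libraries, four specificity codons randomised, used E. coli USO with a HIS3 reporter, site 19 bp from the promoter, on M9-minus-histidine with 0.1 mM IPTG and 5 mM 3-AT for 48 hours at 37°C.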
row,Variant,one-hybrid fitness for binding NBS DNA
1,GMLT,≤ 0.2
2,LATF,≤ 0.2
3,LGYW,≤ 0.2
4,GCYS,≤ 0.2
5,PASM,≤ 0.2
6,RVRS,0.577
7,NGIA,≤ 0.2
8,DTEI,≤ 0.2
9,NKRM,≤ 0.2
10,KTMM,≤ 0.2
11,DNNN,≤ 0.2
12,DNSI,≤ 0.2
13,VGHC,≤ 0.2
14,RSFT,≤ 0.2
15,GNKF,≤ 0.2
16,RPEC,≤ 0.2
17,QKRW,0.226
18,AKWG,≤ 0.2
19,KTNY,≤ 0.2
20,ELHL,≤ 0.2
21,LSVG,≤ 0.2
22,AAQN,≤ 0.2
23,TTIR,≤ 0.2
24,CRLS,≤ 0.2
25,EATF,≤ 0.2
26,RTSP,≤ 0.2

row,Variant,one-hybrid fitness for binding NBS DNA
1,FDRS,≤ 0.2
2,DLLS,≤ 0.2
3,DRSG,≤ 0.2
4,CSYL,≤ 0.2
5,SCWC,≤ 0.2
6,MYQS,≤ 0.2
7,SVEL,≤ 0.2
8,TGPP,≤ 0.2
9,ARKC,≤ 0.2
10,YKST,≤ 0.2
11,DVGA,≤ 0.2
12,SFVF,≤ 0.2
13,HTDT,≤ 0.2
14,LLNG,≤ 0.2
15,TYQS,≤ 0.2
16,NPWR,≤ 0.2
17,RDGL,≤ 0.2
18,WVSG,≤ 0.2
19,TNKA,≤ 0.2
20,RYIM,≤ 0.2
21,PKSK,≤ 0.2
22,FRAP,≤ 0.2
23,QYAH,≤ 0.2
24,STRH,≤ 0.2
25,RDPI,≤ 0.2
26,LATN,≤ 0.2

row,Variant,one-hybrid fitness for binding NBS DNA
1,LLGI,≤ 0.2
2,SHSV,≤ 0.2
3,NTDF,≤ 0.2
4,CTQT,≤ 0.2
5,NQLT,≤ 0.2
6,THQL,≤ 0.2
7,AGQF,≤ 0.2
8,QSDM,≤ 0.2
9,PPQN,≤ 0.2
10,AGKG,≤ 0.2
11,ERKH,≤ 0.2
12,KTRW,≤ 0.2
13,NAKR,≤ 0.2
14,QEHA,≤ 0.2
15,AKGD,≤ 0.2
16,YKKT,0.225
17,RYQM,≤ 0.2
18,AKQR,≤ 0.2
19,KKRR,0.47
20,TIEP,≤ 0.2
21,REPE,≤ 0.2
22,QYAE,≤ 0.2
23,NGLR,≤ 0.2
24,EADC,≤ 0.2
25,KPRA,≤ 0.2
26,SPHA,≤ 0.2

row,Variant,one-hybrid fitness for binding NBS DNA
1,TSEA,≤ 0.2
2,VDIC,≤ 0.2
3,AGPW,≤ 0.2
4,RQAP,≤ 0.2
5,QSGR,0.547
6,ARHK,≤ 0.2
7,ATSK,≤ 0.2
8,NTGR,≤ 0.2
9,SVDP,≤ 0.2
10,RWQQ,≤ 0.2
11,LMVL,≤ 0.2
12,ERFS,≤ 0.2
13,WITC,≤ 0.2
14,CIQC,≤ 0.2
15,WRDL,≤ 0.2
16,GRRL,≤ 0.2
17,DDLG,≤ 0.2
18,AERG,≤ 0.2
19,MRYS,≤ 0.2
20,SHGY,≤ 0.2
21,VHNR,≤ 0.2
22,TIRE,≤ 0.2
23,NLDM,≤ 0.2
24,HQQC,≤ 0.2
25,MAFF,≤ 0.2
26,TTWF,≤ 0.2

row,Variant,one-hybrid fitness for binding NBS DNA
1,RMCG,≤ 0.2
2,AVMT,≤ 0.2
3,DYSI,≤ 0.2
4,ITHA,≤ 0.2
5,KTQR,≤ 0.2
6,RPEF,≤ 0.2
7,GIWG,≤ 0.2
8,THET,≤ 0.2
9,LHLN,≤ 0.2
10,SQQD,≤ 0.2
11,LSGR,≤ 0.2
12,YNKM,≤ 0.2
13,CRDD,≤ 0.2
14,RVME,≤ 0.2
15,GNGC,≤ 0.2
16,TVFN,≤ 0.2
17,TQMF,≤ 0.2
18,LAFV,≤ 0.2
19,KDGG,≤ 0.2
20,HPKM,≤ 0.2
21,MISS,≤ 0.2
22,QTVS,0.406
23,FHRI,≤ 0.2
24,LGTC,≤ 0.2
25,SFFA,≤ 0.2
26,VSNR,≤ 0.2

row,Variant,one-hybrid fitness for binding NBS DNA
1,FAPS,≤ 0.2
2,LLRM,≤ 0.2
3,LHHN,≤ 0.2
4,KSIS,≤ 0.2
5,ADVS,≤ 0.2
6,QIAV,≤ 0.2
7,RLAF,≤ 0.2
8,PELM,≤ 0.2
9,TGSH,≤ 0.2
10,LDNR,≤ 0.2
11,NVVT,≤ 0.2
12,LAHD,≤ 0.2
13,QGQT,≤ 0.2
14,NKMC,≤ 0.2
15,EMNC,≤ 0.2
16,YPYT,≤ 0.2
17,MAVI,≤ 0.2
18,WRTV,≤ 0.2
19,EFRV,≤ 0.2
20,SRWL,≤ 0.2
21,SQEG,≤ 0.2
22,IGHR,≤ 0.2
23,THKR,0.322
